Laboratory results reported in the RNAGym collection of RNA variant scans (doi:10.1093/nar/gkz1192).
Read counts are not given, so values of variants with three or more changes are uncertain.

B1: CPEB3 Ribozyme (parent)
chain: UAACAGGGGGCCACAGCAGAAGCGUUCACGUCGCAGCCCCUGUCAGAUUCUGGUGAAUCUGCGAAUUCUGCUGUAUAUCUC

Variants of: B1
Assay: self-cleavage, relative activity (ratio to wild type); higher = more cleavage; in vitro, sequencing
In short: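 For each CPEB3 ribozyme variant, relative activity is its cleaved/total read fraction divided by the unmutated ribozyme's. Barcoded error-prone PCR libraries were transcribed by T7 RNA polymerase (5 hours, 37°C) and held in DNase I for 15 min before an EDTA stop, with cleavage occurring throughout. Template-switching reverse transcription and Illumina sequencing were used to read the RNAs. A 5-read minimum applied, and results are the mean of three batches.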

| Variant | self-cleavage |
| --- | --- |
| U1A U58C A64U U76C | 0.24 |
| U1A U58C A65G G70A | 0.31 |
| U1A U58C U76A | 0.78 |
| U1A U60A A64G | 0.13 |
| U1A U74C U80C | 1.23 |
| U1C A2C A5U U31C U43C | 0.37 |
| U1C A2C U41A U48C U72A | 0.26 |
| U1C A2G A15C | 0.83 |
| U1C A2G A15G U54A A65U | 0.21 |
| U1C A2G A28C | 0.46 |
| U1C A2G A65G | 0.33 |
| U1C A2G C4U A28U A57U | 0.46 |
| U1C A2G C34G C44U U66A | 0.17 |
| U1C A2G C39U A77G | 0.41 |
| U1C A2G C44U G46A U66A U72C C79A | 0.08 |
| U1C A2G G7A C11U A47G A56G U80C | 0.04 |
| U1C A2G U25A A47U U67C | 0.07 |
| U1C A2G U25C U51C A56U | 0.37 |
| U1C A2G U48C | 0.45 |
| U1C A2U A13G C34U U60C | 0.09 |
| U1C A2U C29U A47U | 0.43 |

| Variant | self-cleavage |
| --- | --- |
| U1C A2U G70A | 0.23 |
| U1C A2U U26C A65G U67C G70A | 0.06 |
| U1C A3C A13C C62A U69C C71U | 0.16 |
| U1C A3C A18U U26C | 0.47 |
| U1C A3C C14U U26C | 0.51 |
| U1C A3G A5G C38A U41C | 0.09 |
| U1C A3G A18G A35G | 1.04 |
| U1C A3G A20G A28U C39U U58A G70U | 0.23 |
| U1C A3G A20G C32A U43C U51A | 0.08 |
| U1C A3G A20G U26C U48C U66C A77G | 0.36 |
| U1C A3G C17U A20G C39U U43C U67C | 0.08 |
| U1C A3G C29A A35G G52U A56U U66C | 0.24 |
| U1C A3G C34A A64C U69C U72A | 0.06 |
| U1C A3G C38A A47G A57G U78C U80C | 0.05 |
| U1C A3G G6A U25C | 0.51 |
| U1C A3G G7U C17U A35G U43C U80A | 0.04 |
| U1C A3G U25C U54C | 0.11 |
| U1C A3G U26A | 0.6 |
| U1C A3G U31C | 0.91 |
| U1C A3G U54C | 1.09 |
| U1C A3U A20G A21G | 0.51 |

| Variant | self-cleavage |
| --- | --- |
| U1C A3U A20U U31A A45G U54C | 0.06 |
| U1C A3U C4A C23A U25C A56G | 0.14 |
| U1C A3U C37A U54G | 0.08 |
| U1C A3U U43C | 0.4 |
| U1C A3U U72C | 1.23 |
| U1C A5C A20U G36A | 0.08 |
| U1C A5C G7U | 0.52 |
| U1C A5C G30A U41A U48A C79A | 0.05 |
| U1C A5C U31C U72C | 0.97 |
| U1C A5G A13G A65G | 0.49 |
| U1C A5G A13U G63U A64G | 0.73 |
| U1C A5G A15G A56G | 0.49 |
| U1C A5G A21C U80C | 0.04 |
| U1C A5G A35U | 0.48 |
| U1C A5G C11U U72A U76C | 0.28 |
| U1C A5G G7C U49A | 0.28 |
| U1C A5G G10C A18G U60C U67C C79G | 0.09 |
| U1C A5G G33A G55U U72C C81U | 0.05 |
| U1C A5G G42A U66C | 0.26 |
| U1C A5G U54A U80A | 0.66 |
| U1C A5G U69C | 0.18 |

| Variant | self-cleavage |
| --- | --- |
| U1C A5U A20G C34A U72A | 0.06 |
| U1C A5U A28U A35U | 0.53 |
| U1C A5U C29U U31C U51C G63C A64U | 0.09 |
| U1C A13C A21C A47G U72A | 0.06 |
| U1C A13C A35U U60G U67A U72C U78C | 0.07 |
| U1C A13G A15G A45G U60C A65U | 0.32 |
| U1C A13G A18G A64U | 0.08 |
| U1C A13G A18G U26C U41C A65G | 0.09 |
| U1C A13G A45G C59A A65G U67A | 0.23 |
| U1C A13G A45G U54G A64G | 0.08 |
| U1C A13G A56G | 0.61 |
| U1C A13G G16A A35C U41C A56U | 0.04 |
| U1C A13G U41A | 0.31 |
| U1C A13G U43C A47U | 0.53 |
| U1C A13G U60A | 0.21 |
| U1C A13G U78A | 0.93 |
| U1C A13U A15C U25C U49C A56U U66C | 0.06 |
| U1C A13U A20G C68G U74A | 0.18 |
| U1C A13U U25C U60C G73A | 0.41 |
| U1C A13U U66C C81A | 0.53 |
